For experiment [1], the target named is T1, soluble SorLA (SorLA ectodomain, luminal part) (human, UniProt Q92673 82-2137).
T1 construct: SorLA, human, luminal (extracellular) part; The introduction says that the propeptide is cut off in late Golgi compartments; also called sSorLA; the entire extracellular part of SorLA
Briefly: SPR; Biacore 3000, CM5 chip; purified soluble receptor immobilized (66 to 86 fmol/mm^2), ligand injected at 5 ul/min, 25°C, 10 mM HEPES, 150 mM NaCl, 1.5 mM CaCl2, 1 mM EGTA, 0.005% Tween 20, pH 7.4; Langmuir 1:1 model, global fitting. The settings on record: both partners purified. (In general: Surface plasmon resonance follows binding to a sensor surface in real time, without labels.)

In experiment [2] the target is T1, soluble SorLA (SorLA ectodomain, …). Briefly: cell-based or functional assay.

T1 sequence (Q92673 82-2137): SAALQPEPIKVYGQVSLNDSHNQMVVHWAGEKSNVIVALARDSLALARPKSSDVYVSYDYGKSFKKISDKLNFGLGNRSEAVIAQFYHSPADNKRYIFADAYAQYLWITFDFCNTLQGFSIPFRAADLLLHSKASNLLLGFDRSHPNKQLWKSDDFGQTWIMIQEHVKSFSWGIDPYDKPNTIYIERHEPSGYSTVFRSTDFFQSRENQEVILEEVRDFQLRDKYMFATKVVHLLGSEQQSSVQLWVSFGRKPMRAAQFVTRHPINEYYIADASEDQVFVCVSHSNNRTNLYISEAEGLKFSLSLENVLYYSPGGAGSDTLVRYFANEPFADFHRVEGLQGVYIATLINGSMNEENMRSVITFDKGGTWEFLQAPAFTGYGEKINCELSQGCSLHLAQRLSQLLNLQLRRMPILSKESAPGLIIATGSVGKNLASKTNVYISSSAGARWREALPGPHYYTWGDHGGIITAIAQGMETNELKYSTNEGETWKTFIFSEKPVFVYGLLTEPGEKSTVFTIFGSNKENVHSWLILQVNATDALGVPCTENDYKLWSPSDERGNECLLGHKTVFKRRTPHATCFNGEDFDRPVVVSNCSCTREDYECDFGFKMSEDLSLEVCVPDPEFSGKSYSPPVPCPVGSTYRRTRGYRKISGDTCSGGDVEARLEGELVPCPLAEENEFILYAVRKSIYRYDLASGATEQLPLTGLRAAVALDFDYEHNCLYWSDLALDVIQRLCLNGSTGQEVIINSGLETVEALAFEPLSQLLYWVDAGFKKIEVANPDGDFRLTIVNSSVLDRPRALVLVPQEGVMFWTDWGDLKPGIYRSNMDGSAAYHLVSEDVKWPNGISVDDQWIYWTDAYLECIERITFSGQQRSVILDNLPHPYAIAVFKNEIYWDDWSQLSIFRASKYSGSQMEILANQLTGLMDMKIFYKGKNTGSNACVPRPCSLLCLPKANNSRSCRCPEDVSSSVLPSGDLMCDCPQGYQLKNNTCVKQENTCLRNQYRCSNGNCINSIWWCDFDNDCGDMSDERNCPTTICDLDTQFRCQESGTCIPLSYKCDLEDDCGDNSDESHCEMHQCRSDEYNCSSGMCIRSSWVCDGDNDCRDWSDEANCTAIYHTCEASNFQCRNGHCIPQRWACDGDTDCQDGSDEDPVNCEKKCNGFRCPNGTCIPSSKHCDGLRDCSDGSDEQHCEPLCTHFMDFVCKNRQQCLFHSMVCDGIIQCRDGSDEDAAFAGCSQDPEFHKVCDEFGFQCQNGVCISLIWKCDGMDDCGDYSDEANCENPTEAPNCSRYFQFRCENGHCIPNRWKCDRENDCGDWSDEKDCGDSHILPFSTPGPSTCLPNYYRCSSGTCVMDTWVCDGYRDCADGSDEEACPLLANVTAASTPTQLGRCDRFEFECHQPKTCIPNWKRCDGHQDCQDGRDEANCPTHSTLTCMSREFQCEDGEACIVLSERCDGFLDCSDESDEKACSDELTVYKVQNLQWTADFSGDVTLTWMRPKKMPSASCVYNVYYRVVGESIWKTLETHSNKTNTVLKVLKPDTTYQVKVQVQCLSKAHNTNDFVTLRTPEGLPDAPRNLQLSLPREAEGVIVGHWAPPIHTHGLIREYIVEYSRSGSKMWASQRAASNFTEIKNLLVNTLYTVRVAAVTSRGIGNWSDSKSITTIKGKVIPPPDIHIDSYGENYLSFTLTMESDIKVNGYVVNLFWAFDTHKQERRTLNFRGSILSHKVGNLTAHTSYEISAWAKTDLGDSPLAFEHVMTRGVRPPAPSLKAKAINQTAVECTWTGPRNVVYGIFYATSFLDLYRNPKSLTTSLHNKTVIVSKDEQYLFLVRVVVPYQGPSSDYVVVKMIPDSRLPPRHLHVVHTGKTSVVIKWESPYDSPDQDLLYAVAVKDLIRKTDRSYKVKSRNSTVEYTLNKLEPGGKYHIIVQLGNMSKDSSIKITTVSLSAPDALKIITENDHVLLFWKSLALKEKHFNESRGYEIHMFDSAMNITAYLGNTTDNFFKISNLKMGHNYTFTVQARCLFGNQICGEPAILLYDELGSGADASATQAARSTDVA

B1: Interleukin-6 (ligand)
chain: not shown
notes: interleukin-6, human, recombinant; also called IL-6; recombinant human IL-6; source: bought: Millipore
One may read the Kd as the free concentration of one partner at which half of the binding sites on the other are occupied at equilibrium, for simple one-to-one binding. The low end stands for tighter binding, the high end for weaker binding. With B1, the dissociation constant (Kd) in experiment [1] is around 29 nM. Moreover, the “pSTAT3 (Western blot) in BA/F3 cells expressing gp130, 15 min; sSorLA:IL-6 (40 nM:5 nM, coincubated 3 h at room temperature) with sIL-6R (5 nM), against IL-6 and sIL-6R (5 nM each)” value in experiment [2] was around 3 fold.

(Values after article PMC5440653, “SorLA in Interleukin-6 Signaling and Turnover” (Molecular and Cellular Biology, 2017).)
